Test results as given in PMC12497685, “Anticoronavirus Isoquinoline Alkaloids: Unraveling the Secrets of Their Structure–Activity Relationship” (Influenza and Other Respiratory Viruses, 2025).

System: HCoV‐229E
Assay type: cell-based

Compound | activity against HCoV‐229E infection (in words)
COc1ccc2cc3n(c(=O)c2c1OC)CCc1cc2c(cc1-3)OCO2 [Compound 22, 8‐oxoberberine] | no activity
COc1cc2c(cc1O)[C@@H]1Cc3cc4c(cc3[C@H](C2)N1C)OCO4 [Compound 34, (−)‐caryachine] | inactive
O[C@@H]1Cc2cc3c(cc2[C@@H]2NCc4c(ccc5c4OCO5)[C@H]12)OCO3 [Compound 48, norchelidonine] | effectively protected all surviving cells from infection
CO[C@@H]1C=C[C@@]23c4cc5c(cc4CN(C[C@@H]2O)[C@H]3C1)OCO5 [Compound 3, (+)‐haemanthamine] | effectively protected all surviving cells from infection
(−)‐O‐methylcaryachine [Compound 35] | inactive
COc1cc2c(cc1OC)C1Cc3ccc(OC)c(O)c3C(C2)N1C (stereo not drawn) [Compound 24, (−)‐platycerine] | inactive
COc1cc2c(cc1OC)C1Cc3cc(OC)c(OC)cc3[C@H](C2)N1C [Compound 23, argemonine] | inactive
COc1ccc2c(c1OC)[C@@H]1Cc3cc4c(cc3[C@H](C2)N1C)OCO4 [Compound 36, O‐methylneocarychine] | inactive
